According to the RNAGym collection of RNA variant scans (doi:10.7554/elife.90254):
The source gives no read counts; variants with many changes may rest on few reads.

B1: LINE1-mini (parent)
chain: GGCAGAGCUCAACACAGCGUGGCAAAGUGGCUGUGGCUAGACUGCC

Variants of: B1
Experiment: self-cleavage, relative activity (ratio to wild type); higher = more cleavage; in vitro, sequencing; the parent is a self-cleaving ribozyme

**Q.** For GGCACAUCUCAACACAGUGUGGCAAAGUGGCUGUGGCUAGACUGCC [G5C G7U C18U], which self-cleavage is on record?
**A.** Its self-cleavage is 0.1.

**Q.** For GGCACAGCAUAACACAGCGUGGUAAAGUGGCUGUGGCUAGACUGCC [G5C U9A C10U C23U], which self-cleavage is on record?
**A.** The self-cleavage was 0.04.

**Q.** For GGCACAGCUCAACACAGCGUGGCAAAGUUGGUGUGGCUAGACUGCC [G5C G29U C31G], which self-cleavage is on record?
**A.** The self-cleavage was 0.04.

**Q.** With GGCACACCUCAACAUAGCGUGGCAAAGUGGCUGUGACUAGACUGCC [G5C G7C C15U G36A] as the variant, how does the self-cleavage read?
**A.** The self-cleavage was 0.07.

**Q.** Which self-cleavage does the source give for GGCACAGCUCAACACAGCAUGGCAAAGCGGCUCUGGCUAGACUGCC [G5C G19A U28C G33C] here?
**A.** Its self-cleavage is 0.07.

**Q.** With GGCACACCUCAACACAGCGUGGCAAAGUAGCUGUGUCUAGACUGCC [G5C G7C G29A G36U] as the variant, how does the self-cleavage read?
**A.** The self-cleavage was 0.06.

**Q.** Which self-cleavage does the source give for GGCACACCUCAACACAGCGUGGCAAAGUGGCUGUGGCUAGCCUGCC [G5C G7C A41C] here?
**A.** The self-cleavage was 0.14.

**Q.** With GGCACAGCUCAACACAGCGUGGCAAAGUGGCUCUGCCUAGACUGCC [G5C G33C G36C] as the variant, how does the self-cleavage read?
**A.** The self-cleavage was 0.02.

**Q.** For GGCACAGCUCAACACAGCGUUGCAAAGUGGCCGUGGGUAGAUUUCC [G5C G21U U32C C37G C42U G44U], which self-cleavage is on record?
**A.** Its self-cleavage is 0.01.

**Q.** With GGCACAGCUCAACACAGCGUAGCAAAGUGGCAGGGGCUAGAUUGCC [G5C G21A U32A U34G C42U] as the variant, how does the self-cleavage read?
**A.** Its self-cleavage is 0.01.

**Q.** Which self-cleavage does the source give for GGCACAGCUCAACACAGCGUGGCAAAGUGGCUGUAAAUAGACUGCC [G5C G35A G36A C37A] here?
**A.** The self-cleavage was 0.05.

**Q.** Which self-cleavage does the source give for GGCACAGCUCAACACAACGUGGCAAAGUGGGUGUGCCUAGUCUGAC [G5C G17A C31G G36C A41U C45A] here?
**A.** The self-cleavage was 0.06.

**Q.** For GGCACAGCGCAACACAGCGUGGCAAAGUGGCUGUGGUUAGACUGCC [G5C U9G C37U], which self-cleavage is on record?
**A.** Its self-cleavage is 0.05.

**Q.** For GGCACAGCACAACACAGCGUAGCAAAGUGGCUGUGGCUAGACUGCC [G5C U9A G21A], which self-cleavage is on record?
**A.** Its self-cleavage is 0.03.

**Q.** With GGCACAGCGCGAAACAGCGUGGCAAAGUGGCUGUGGAUAGGCUGCC [G5C U9G A11G C13A C37A A41G] as the variant, how does the self-cleavage read?
**A.** The self-cleavage was 0.01.

**Q.** For GGCACAGCACAACACACCGUGGCAAAGUGGCUGUGGCUAGACUGCC [G5C U9A G17C], which self-cleavage is on record?
**A.** Its self-cleavage is 0.04.

**Q.** Which self-cleavage does the source give for GGCACAGCUCAACACAACGUGGCAAAGCGGCUGUGGCUAGACUGCC [G5C G17A U28C] here?
**A.** The self-cleavage was 0.02.

**Q.** Which self-cleavage does the source give for GGCACAGCUCAACACAGCGUGUCAAUGUUGCUGUGGCUAGACUGCU [G5C G22U A26U G29U C46U] here?
**A.** The self-cleavage was 0.05.

**Q.** For GGCACAGCUCAACACAGCUUGGCAAUUUGGCUGUGGCUAGACUGCC [G5C G19U A26U G27U], which self-cleavage is on record?
**A.** The self-cleavage was 0.08.

**Q.** Which self-cleavage does the source give for GGCACAACUCAACACAGCGUGGAAAAGUGGCUGUGGCUAAACUGCC [G5C G7A C23A G40A] here?
**A.** The self-cleavage was 0.15.

**Q.** Which self-cleavage does the source give for GGCACACCUCAACACAGCGUGGCAAAGUGGCUGUGGCUAGACUGCU [G5C G7C C46U] here?
**A.** The self-cleavage was 0.08.

**Q.** For GGCACAGCACAACACAGCGUCGCAAAGUGGCUUUGGCUAUACUGCC [G5C U9A G21C G33U G40U], which self-cleavage is on record?
**A.** The self-cleavage was 0.08.

**Q.** With GGCACAGCUCAACACAGCCUGGCAAAUUGGCUGUGGCUAGACUGCC [G5C G19C G27U] as the variant, how does the self-cleavage read?
**A.** The self-cleavage was 0.1.

**Q.** Which self-cleavage does the source give for GGCACAGCUCAACACAGCGUGGCAAACUGUCUGUGGCAAGACUGCC [G5C G27C G30U U38A] here?
**A.** Its self-cleavage is 0.07.

**Q.** With GGCACAGCUCAACACAACGUGGCAAAGUGACUGUGGCUAGACUGCC [G5C G17A G30A] as the variant, how does the self-cleavage read?
**A.** Its self-cleavage is 0.02.

**Q.** With GGCACAGCCCAACACAGCGUGGCAAAAUGGCUGUGGCUAGAUUGCC [G5C U9C G27A C42U] as the variant, how does the self-cleavage read?
**A.** Its self-cleavage is 0.03.

**Q.** For GGCACAGCUCAACACAGCGGGGGAAAGUGGCUGUGGCUAGACUGCC [G5C U20G C23G], which self-cleavage is on record?
**A.** The self-cleavage was 0.04.

**Q.** For GGCACACCUCAACACAGCGUGGCAAAGUGGCUGUGGCUAGACUGAC [G5C G7C C45A], which self-cleavage is on record?
**A.** The self-cleavage was 0.11.

**Q.** Which self-cleavage does the source give for GGCACAGCCCAACAUAGCGUGGCAAAGUGGCUGUGGCUAGACUGCC [G5C U9C C15U] here?
**A.** The self-cleavage was 0.05.

**Q.** Which self-cleavage does the source give for GGCACAGCUCAACACACCGUGGCAAGGUGGCUGUGGCUAGACUGCC [G5C G17C A26G] here?
**A.** The self-cleavage was 0.03.

**Q.** Which self-cleavage does the source give for GGCACAGCACAACACAGCAUGGCAAGGUGGCUGUGGCUAGACUGCC [G5C U9A G19A A26G] here?
**A.** Its self-cleavage is 0.04.

**Q.** Which self-cleavage does the source give for GGCACAGCUCAACACAACGUGGCAAAGUGGCUGAGGCUAGACUGCC [G5C G17A U34A] here?
**A.** The self-cleavage was 0.1.

**Q.** For GGCACAGCUCAACACAGCGUGGCAAAACGGCUGUGGCUAGAUUGCC [G5C G27A U28C C42U], which self-cleavage is on record?
**A.** Its self-cleavage is 0.1.

**Q.** For GGCACAGCUCAACACAACGUUGCAAAGUCGCCGUGGCUAGACUGCC [G5C G17A G21U G29C U32C], which self-cleavage is on record?
**A.** Its self-cleavage is 0.02.

**Q.** For GGCACACGUCAACACAGCGUGGCAAAGUGGCUGUGGCUAGACUGCC [G5C G7C C8G], which self-cleavage is on record?
**A.** Its self-cleavage is 0.07.

**Q.** With GGCACAGCGCAACACAUCGUGGCAAAGUGGCUGUGGCUAGCCUGCC [G5C U9G G17U A41C] as the variant, how does the self-cleavage read?
**A.** The self-cleavage was 0.02.

**Q.** With GGCACAGCUCAACACACCGUGGCAAAGUGGUUGUGGCUAGACUGCC [G5C G17C C31U] as the variant, how does the self-cleavage read?
**A.** The self-cleavage was 0.01.

**Q.** For GGCACAGCCAAACACAGCGUGGCAAAGUGGCUGUGGCUAGACUGGC [G5C U9C C10A C45G], which self-cleavage is on record?
**A.** Its self-cleavage is 0.01.

**Q.** With GGCACAGCUCAACACAGCUUGGCAAAGUGGCUGUGGCUAGACCGCC [G5C G19U U43C] as the variant, how does the self-cleavage read?
**A.** The self-cleavage was 0.01.

**Q.** For GGCACAUCUCAACACAGCGUGGAAAAGUGGCUGUCGCUAGACUGCC [G5C G7U C23A G35C], which self-cleavage is on record?
**A.** The self-cleavage was 0.53.

**Q.** With GGCACAGCUCAACACAGCGUGGCAAAGUUGCUGUGGCUAGACGGCC [G5C G29U U43G] as the variant, how does the self-cleavage read?
**A.** Its self-cleavage is 0.1.

**Q.** With GGCACAUCUCAACAGAGCGUAGCAAAGUGGCUGUGGCGAGACUGAC [G5C G7U C15G G21A U38G C45A] as the variant, how does the self-cleavage read?
**A.** The self-cleavage was 0.01.

**Q.** With GGCACAGCUCAACACAGCCUGCCAAAGUGGAUGUGGCUAGACUGCC [G5C G19C G22C C31A] as the variant, how does the self-cleavage read?
**A.** The self-cleavage was 0.01.

**Q.** For GGCACAGCUCAACACACCUUGACAAAGUGGCUGUGGCUAGACUGCC [G5C G17C G19U G22A], which self-cleavage is on record?
**A.** Its self-cleavage is 0.01.

**Q.** Which self-cleavage does the source give for GGCACAACUUAACGCAGCGUAGCAAAGUGGCGGUGGCUAGACUGCC [G5C G7A C10U A14G G21A U32G] here?
**A.** Its self-cleavage is 0.06.

**Q.** With GGCACAGCGCAACUCAGCGUGGUAAAGUGGCAGUUGCUCUACUGCC [G5C U9G A14U C23U U32A G35U A39C G40U] as the variant, how does the self-cleavage read?
**A.** Its self-cleavage is 0.03.

**Q.** For GGCACAUCUCUACACAGCGUGGCUAAGUUGCUGUGGCUAGACUGUC [G5C G7U A11U A24U G29U C45U], which self-cleavage is on record?
**A.** Its self-cleavage is 0.

**Q.** For GGCACAGCUCAACACAGCGUGGCAAACUGGCUGUGGCUAGAUUGUC [G5C G27C C42U C45U], which self-cleavage is on record?
**A.** The self-cleavage was 0.17.

**Q.** With GGCACAGCGCAACACAGCGUGGCAGAGUGAUUAUGGCUAGACUGCC [G5C U9G A25G G30A C31U G33A] as the variant, how does the self-cleavage read?
**A.** Its self-cleavage is 0.09.

**Q.** With GGCACAUCUCAACACAGCGUGGCAAAGUGGCUGUGGCUAGAGUCCC [G5C G7U C42G G44C] as the variant, how does the self-cleavage read?
**A.** The self-cleavage was 0.07.

**Q.** For GGCACAGCUCAACACAGCGUGCCAAGGUGGCUGUGGCUUGACCGCC [G5C G22C A26G A39U U43C], which self-cleavage is on record?
**A.** The self-cleavage was 0.03.

**Q.** Which self-cleavage does the source give for GGCACAGCUCAACACAGCGUGGCAAAGUUGCUGUGGCAAGACUGCC [G5C G29U U38A] here?
**A.** Its self-cleavage is 0.11.

**Q.** With GGCACAGCCCAACACAGCGUGGCAAAGUGGCUGUGGCUAGACAGCC [G5C U9C U43A] as the variant, how does the self-cleavage read?
**A.** Its self-cleavage is 0.03.

**Q.** For GGCACAACUCAACACAGAGUGGCAAAGUGGCUUUGGUUAGACUGCA [G5C G7A C18A G33U C37U C46A], which self-cleavage is on record?
**A.** Its self-cleavage is 0.02.

**Q.** With GGCACAACUCAACAGAGCGUGGGAAAGUGUCUGUGCCUAGACUGCC [G5C G7A C15G C23G G30U G36C] as the variant, how does the self-cleavage read?
**A.** Its self-cleavage is 0.

**Q.** With GGCACAGCUCAACACAGCGUGGCAAAGUCGCUGUGGUUAGACUGCC [G5C G29C C37U] as the variant, how does the self-cleavage read?
**A.** Its self-cleavage is 0.04.
